# Laboratory results taken from PubChem BioAssay AID463173 (ICCB-Longwood Screening Facility, Harvard Medical School, 2010).
# In all, about 52,000 compounds went through this assay and about 1,700 (3.3%) were called active. Rule as the data show it: active = survival mostly below about 52% (no sharp cut-off); inactive = mostly above about 56%. The list shows a part of the results.
# System: Wild type
# Assay: growth inhibition of S. aureus wild type versus tarO mutant, primary screen, teichoic acid synthesis inhibitors, RN4220, OD600 (AID 463173)
# Details: S. aureus RN4220 wild type/DeltatarO growth, OD600, 18 h, hits give low values, screened at 18.75 µg/mL (by protocol)
row,Compound,survival
1,Cc1c(C(=O)Nc2cccc(C(F)(F)F)c2)oc2ccc(S(=O)(=O)N3CCC4(CC3)OCCO4)cc12,inactive: 74%
2,COc1ccc(NC(=O)CSc2c3c(nc4ccccc24)CCC3)cc1Cl,inactive: 142%
3,CC(C)(C)C(=O)Nc1nnc2n1CCS2,inactive: 77%
4,Cc1ccc2c(c1)N(C(=O)CCC(=O)Nc1ccc(F)cc1F)CC(C)O2 (stereo unspecified),inactive: 75%
5,Cc1nn(S(=O)(=O)c2ccc(F)cc2)c(C)c1S(=O)(=O)N1CCCCC1,inactive: 71%
6,CC(C)NC(=O)C1CCCN(S(=O)(=O)c2ccc(-n3cnnn3)cc2)C1 (stereo unspecified),inactive: 103%
7,CC1CCc2c(sc3nc(C(C)C)n4c(SCC(=O)NCc5ccco5)nnc4c23)C1 (stereo unspecified),inactive: 104%
8,CC(C)(C)c1ccc(C(=O)N2CCC(c3noc(-c4ccc(S(=O)(=O)N5CCCC5)cc4)n3)CC2)cc1,inactive: 87%
9,Cc1ccccc1CNC(=O)CCc1cn(Cc2ccccc2C)c2ccccc12,inactive: 85%
10,CCN(CC)S(=O)(=O)c1ccc(NC(=O)c2ccc3c(=O)n4c(nc3c2)CCCCC4)cc1,inactive: 73%
11,CCOc1ccc(NC(=O)c2ccc3c(c2)nnn3C2CCCC2)cc1,inactive: 124%
12,CCOc1ccccc1N(C)C(=O)c1cc(S(=O)(=O)NCCc2ccc(Cl)cc2)ccc1F,inactive: 58%
13,CCc1ccccc1NC(=O)CSc1nc(C)c(C(=O)Nc2ccccc2)c(-c2ccc(Cl)cc2)c1C#N,inactive: 77%
14,CCOC(=O)c1c(C)[nH]c(C)c1S(=O)(=O)N1CCC(C(=O)NCc2cccc(C)c2)CC1,inactive: 76%
15,O=C(Nc1ccc(-c2nc3ccccc3s2)c(O)c1)c1ccc(Br)cc1,inactive: 85%
16,Cc1ccc(NC(=O)C2CCN(S(=O)(=O)c3cccc4nonc34)CC2)c(Cl)c1,inactive: 108%
17,CCOC(=O)C1=C(CS(=O)(=O)c2ccc(C(C)(C)C)cc2)NC(=O)NC1c1cccc(OC)c1 (stereo unspecified),inactive: 80%
18,C=CCc1ccccc1OCC(CN1CCCCC1)OC(C)=O (stereo unspecified),inactive: 112%
19,Cc1cccc(NC(=O)CSc2nnc3[nH]c(=O)cc(C)n23)c1C,inactive: 83%
20,COc1ccc(-c2cc3c(=O)n(CC(=O)Nc4ccc(Br)c(C)c4)ccn3n2)cc1OC,inactive: 89%
21,COc1ccc(N2CCN(C(=O)c3cnc(SC)nc3C)CC2)cc1,inactive: 59%
22,Cc1cc(S(=O)(=O)Nc2cc3c(cc2NCc2ccccc2)n(C)c(=O)n3C)ccc1F,inactive: 67%
23,O=C(CCn1c(=O)c2cccn2c2cccnc21)Nc1ccccc1Br,inactive: 80%

row,Compound,survival
1,CCCc1c(C)c2ccccc2[nH]c1=O,inactive: 107%
2,O=C(CSCc1ccc(F)cc1)N1CCc2c([nH]c3ccccc23)C1c1ccc(F)cc1 (stereo unspecified),inactive: 71%
3,Cc1ccc[n+](Cc2cnc(C)nc2N)c1,inactive: 125%
4,COc1ccc(CCNC(=O)CCCCn2c(=O)c3ccccc3n(CC(=O)Nc3ccc(C)cc3C)c2=O)cc1OC,inactive: 108%
5,COC(=O)c1cccc(Cn2nnc3sc4c(c3c2=O)CCC(C(C)(C)C)C4)c1 (stereo unspecified),inactive: 91%
6,O=C(COc1ccccc1)NCCc1csc(-c2cccc(F)c2)n1,inactive: 80%
7,Cc1ccc(C)c(Nc2nc(-c3ccccc3)c3cc(Br)ccc3n2)c1,inactive: 42%
8,N#Cc1cccc(NC(=O)Cn2nc(Cc3ccncc3)c3ccccc3c2=O)c1,inactive: 123%
9,CCN1C(=O)C(Cc2nc3ccccc3c(=O)n2-c2ccc(OC)cc2)c2cc(C)ccc21 (stereo unspecified),inactive: 91%
10,O=C(c1cccs1)N1CCCn2c1nc1ccccc12,inactive: 106%
11,O=C(CSc1ncn[nH]1)n1c2ccccc2c2ccccc21,inactive: 90%
12,Cc1cccc(C(=O)Nc2cccc(OCc3cc(=O)n4cccc(C)c4n3)c2)c1,inactive: 76%
13,Cc1cccc(N(C)C(CNS(=O)(=O)c2ccccc2)c2ccccc2)c1 (stereo unspecified),inactive: 86%
14,O=C(Nc1cccc(Cl)c1)c1cc(-c2ccc3c(c2)OCCO3)on1,inactive: 122%
15,CCN(CC)CCNC(=O)C(=O)NCC(c1cccnc1)N1CCN(c2ccccc2)CC1 (stereo unspecified),inactive: 104%
16,N#CN=C(N)CSc1nc(-c2ccccc2)cc(-c2ccccc2)c1C#N,inactive: 114%
17,Cc1cc(Sc2ccc(Cl)cc2)nc2ccccc12,inactive: 50%
18,CC(C)(C)OC(=O)N1CCC(c2c(C(=O)NC3CCCCC3)cnn2-c2cccc(F)c2)CC1,inactive: 121%
19,O=C(CSc1ccccc1)NCc1ccc2c(c1)CCN2C(=O)c1ccc(Cl)cc1,inactive: 117%
20,Cc1cc(C)n(C2CC(=O)N(N(C)C)C2=O)n1 (stereo unspecified),inactive: 98%
21,O=C(COc1ccccc1)NCc1ccc2c(c1)CCN2C(=O)c1ccccc1,inactive: 60%
22,COc1ccccc1N1CCN(CC(=O)N2CCCC2)CC1,inactive: 94%
23,Cc1ccc(N(C)S(=O)(=O)c2ccc3[nH]c4c(c3c2)CCCC4)cc1,inactive: 63%

row,Compound,survival
1,Cc1cccc(C(=O)Nc2cccc(C(=O)OCc3cc(=O)n4nc(C(C)C)sc4n3)c2)c1,inactive: 126%
2,Cn1nnnc1SCCNCc1ccc(OCc2ccccc2Cl)cc1,inactive: 53%
3,CC(NC(=O)c1ccc(NC(=O)c2nsc3ccccc23)cc1)c1ccccc1 (stereo unspecified),inactive: 69%
4,COc1ccc(-n2nc(C(=O)Nc3ccc(Cl)cn3)c3c4ccccc4n(C)c3c2=O)cc1Cl,inactive: 77%
5,Cc1cccc(NC(=O)c2sc3nc4c(cc3c2N)CCCCCC4)c1C,inactive: 121%
6,Clc1ccc(OCc2nc3ccccc3[nH]2)cc1,inactive: 105%
7,COC(=O)c1c(NC(=O)Cc2coc3ccc(C)cc23)sc2c1CCC2,inactive: 84%
8,O=C(c1ccccc1Cl)N(Cc1ccco1)Cc1ccco1,inactive: 92%
9,Cc1ccccc1Nc1c(-c2cccc(N(C)C)c2)nc2ccc(Br)cn12,inactive: 88%
10,Cc1cc(F)ccc1-n1nnc(C(N)=O)c1C,inactive: 64%
11,CC(=O)c1cccc(NC(=O)c2c(-c3ccccc3)c(-c3ccccc3)nn(C)c2=O)c1,inactive: 86%
12,CN(Cc1ccccc1)c1ccc(-c2nc(-c3ccco3)no2)cc1[N+](=O)[O-],inactive: 76%
13,Cc1ccc(CCNC(=O)c2cc(Nc3ccc(C)c(C)c3)nc3ccccc23)cc1,inactive: 76%
14,CC(C)C1C(=O)Nc2ccc(S(=O)(=O)NCc3ccc(Cl)cc3)cc21 (stereo unspecified),inactive: 64%
15,Cc1ccc(NC(=O)CSc2c3c(nc4ccccc24)CCCC3)cc1F,inactive: 36%
16,Cc1cc(=O)n(CC(=O)Nc2ccc([N+](=O)[O-])cc2)c(-n2nc(C)cc2C)n1,inactive: 75%
17,CCOC(=O)c1ccc(NC(=O)CC2C(=O)N(c3ccc(C)cc3)C(=O)N2C2CCCCC2)cc1 (stereo unspecified),inactive: 86%
18,Cc1cc(C(F)(F)F)nn1-c1nc(-c2ccccc2)cc(C(F)(F)F)n1,active: 13%
19,Cc1ccccc1NC(=O)Cn1c(=O)n(CCc2ccccc2)c(=O)c2sc3ccccc3c21,inactive: 98%
20,Cc1[nH]c2ccccc2c1C(c1ccccc1)c1cccs1 (stereo unspecified),inactive: 28%
21,COc1ccc(CCN2C(=O)c3[nH]nc(-c4ccccc4O)c3C2c2cccc(OC)c2)cc1 (stereo unspecified),inactive: 73%
22,OC(CN1CCOCC1)Cn1c2ccccc2c2ccccc21 (stereo unspecified),inactive: 99%
23,Cc1cccc(-n2c(SCc3nc(-c4ccccc4C)no3)nnc2-c2ccccc2)c1,inactive: 88%

row,Compound,survival
1,CC(C)S(=O)(=O)c1oc(-c2ccc(F)cc2)nc1S(=O)(=O)c1ccccc1,inactive: 23%
2,CN1CCN(c2oc(/C=C/c3ccc(F)cc3)nc2C#N)CC1,inactive: 76%
3,CCc1nn(CC(=O)NC(C)CC)c(=O)c2cc3c(OC)cccc3n12 (stereo unspecified),inactive: 133%
4,COc1cc(NC(=O)c2nn(-c3ccc(C)cc3)c(=O)c3c2c2ccccc2n3C)cc(OC)c1OC,inactive: 74%
5,CCOC(=O)c1ccccc1NS(=O)(=O)c1ccc(N2CCCCS2(=O)=O)cc1,inactive: 97%
6,O=C(Cc1nc2ccccc2[nH]1)N1CCCC1,inactive: 107%
7,CCOc1ccc(-n2nc(CO)c(C(=O)NCc3cccnc3)n2)cc1,inactive: 83%
8,COc1ccc(-c2noc(-c3ccc(N4CCN(c5ccc(OC)cc5)CC4)c([N+](=O)[O-])c3)n2)cc1,inactive: 84%
9,Cc1ccc(NC(=O)CC2SC3=NCCN3C2=O)cc1 (stereo unspecified),inactive: 93%
10,COc1cc(C)ccc1OCCCn1c(-c2ccc(Cl)cc2)nc2ccccc2c1=O,inactive: 83%
11,COc1cccc(N2CCN(C(=O)c3cc4c(=O)n(Cc5ccccc5)ccc4nc3C)CC2)c1,inactive: 126%
12,Cc1cccn2c(=O)c(C(=O)NCc3ccccc3Cl)c(O)nc12,inactive: 54%
13,CS(=O)(=O)N1CCN(c2ncnc3c(-c4ccc(Cl)cc4)nsc23)CC1,inactive: 110%
14,Cc1ccccc1-c1nc(CS(=O)CC(=O)N2CCN(c3cc(Cl)ccc3C)CC2)c(C)o1 (stereo unspecified),active: 10%
15,O=C(NCCCO)c1cc2sc3ccccc3c2s1,inactive: 103%
16,CCN(CC)CCCNC(=O)Cn1nc(C)n2c(cc3sccc32)c1=O,inactive: 84%
17,O=C1/C(=C/c2ccccc2)Nc2ccccc21,inactive: 121%
18,CCCCC(=O)Nc1cccc(-c2nc3ncccc3o2)c1C,inactive: 66%
19,CCC(=O)N1c2ccccc2CC1C(=O)NCc1cccc(C)c1 (stereo unspecified),inactive: 72%
20,COc1ccc(CCNC(=O)Cn2c(=O)n(-c3ccc(C)c(C)c3)c(=O)c3c(C)c(C)sc32)cc1OC,inactive: 86%
21,COc1ccc(Cn2nnc3c(=O)[nH]c(C4CCCN(C(=O)c5ccc(C)cc5)C4)nc32)cc1 (stereo unspecified),inactive: 108%
22,CCCCc1ccc(NC(=O)Cn2nnc3sc4c(c3c2=O)CCC(C)C4)cc1 (stereo unspecified),inactive: 77%
